Source: PubChem BioAssay AID686971 (National Center for Advancing Translational Sciences (NCATS), 2013)
About 7,500 (2.1%) of roughly 360,000 compounds were called active. This list was built around the results that the source calls inconclusive (neither active nor inactive); the mix of calls is not that of the screen. Calls follow the shape of the dose curve; as a rule, active = well fitted cell-killing curve with a large enough effect; inconclusive = small, poorly fitted or top-dose-only effect, or effect the other way, or another doubt; inactive = no such curve, though single readings can be large or run the other way. Potencies of inconclusive entries are left out as doubtful fits.

Test: qHTS for induction of synthetic lethality in tumor cells producing 2HG: qHTS for the HT-1080-IDH1KD cell line;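 as to activity, negative = toxicity: 0% = DMSO wells and -100% = cell-free medium wells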
Details: HT-1080 IDH1 knockdown viability, ATP luminescence, 48 h; activity, negative = toxicity: at 46.1 µM (top of the series) unless noted
Procedure, shortened: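 Luminescent ATP read-out (CellTiter-Glo, 10 min at room temperature) after 48 h compound exposure at 37 °C gave viability of IDH1-knockdown HT-1080 cells. Activity was normalised to DMSO and cell-free wells, then fitted as concentration-response curves.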
Potency is read from the fitted curve at half-maximal effect; tags tell the direction and shape of the fitted curve.

| SMILES | Potency | activity, negative = toxicity |
| --- | --- | --- |
| COc1ccc(OC(F)(F)F)cc1CC1(C)C(=O)Nc2ccc(S(=O)(=O)NC3CCCCC3)cc21 (configuration not stated) | inconclusive [cytotoxic, single point] | – |
| Cc1ccc(S(=O)(=O)NC(C(=O)Oc2ccc3c(C(F)(F)F)cc(=O)oc3c2)c2ccccc2)cc1 (configuration not stated) | – | inactive: 19.9% |
| O=C(O)C(=O)/C(=C\c1cccc2ccccc12)c1ccc2ccccc2n1 | inconclusive [cytotoxic, single point] | – |
| Cc1ccc(OCC(=O)N2CCN(c3nnc(-c4ccccc4)c4ccccc34)CC2)cc1 | inconclusive [cytotoxic, single point] | – |
| CCS(=O)(=O)NCc1ccc2c(c1)cc(C)n2C | – | inactive: 0.477% |
| COc1ccc(C(=O)Nc2ccc(SC(F)F)cc2)cc1 | – | inactive: 1.9% |
| O=C1NC(=O)C(Cc2ccccc2)(c2cccnc2)N1 (configuration not stated) | inconclusive [rising, single point] | – |
| OCCC1CN(Cc2ccc3cc(Cl)ccc3n2)CCN1Cc1ccsc1 (configuration not stated) | inconclusive [cytotoxic, partial curve] | – |
| Nc1ccc(OC(=O)Nc2ccc(O)cc2)cc1 | inconclusive [cytotoxic, partial curve] | – |
| Oc1ccccc1Oc1ncc(Br)c(Cl)n1 | – | inactive: -5.78% |
| Cc1ccc2nc(N3C(=O)C(O)=C(C(=O)c4ccco4)C3c3ccc(C)o3)sc2c1 (configuration not stated) | inconclusive [cytotoxic, partial curve] | – |
| CSc1ncccc1C(=O)NC(C)C1CC2CCC1C2 (configuration not stated) | – | inactive: 4.27% |
| Cc1ccc(C)c(NC(=O)c2cc(-c3cc(C)ccc3O)n[nH]2)c1 | inconclusive [cytotoxic, partial curve] | – |
| COC(=O)C1=CN(c2ccc(N3CCOCC3)cc2)C(N)=C(C#N)C1c1ccc(-c2ccccc2)cc1 (configuration not stated) | – | inactive: -22.5% |
| CN(CC1CCCO1)S(=O)(=O)c1ccc(C(=O)Nc2nnc(-c3ccccc3)o2)cc1 (configuration not stated) | inconclusive [cytotoxic, partial curve] | – |
| O=C(NC(=S)NNC(=O)c1ccccc1O)c1cccs1 | – | inactive: -20.6% |
| COc1cc(/C=C/C(=O)c2ccc(Cl)s2)cc(OC)c1O | active: 11.2 µM | – |
| CCN=C1S/C(=C/c2ccc(-c3ccc(Cl)cc3C(=O)O)o2)C(=O)N1CC | – | inactive: -0.57% |
| CCn1c(=O)cc(SCC(=O)Nc2ccc3c(c2)OCO3)c2ccccc21 | inconclusive [cytotoxic, single point] | – |
| C(=N\Nc1nc2ccccc2[nH]1)/c1ccccn1 | active: 18.4 µM | – |
| Cc1ccc(Nc2nc(NCCCN3CCOCC3)nc(N)c2[N+](=O)[O-])cc1C | – | inactive: -0.0995% |
| CCCCn1nnnc1C1(C)CCC(=O)N1CCCn1ccnc1 (configuration not stated) | inconclusive [cytotoxic, single point] | – |
| CCN(CC)S(=O)(=O)c1ccc(C(=O)Nc2nnc(NC(=S)Nc3ccccc3)s2)cc1 | inconclusive [cytotoxic, single point] | – |
| C[C@H](O)[C@@H]1CN2CCc3c([nH]c4ccc(-c5ccc6c(c5)OCO6)cc34)[C@@H]2C[C@@H]1N(C)C(=O)Nc1ccc(F)cc1 | active: 20.6 µM | – |

| SMILES | Potency | activity, negative = toxicity |
| --- | --- | --- |
| COc1ccc(CC(=O)N/N=C/c2cccnc2)cc1OC | – | inactive: 11.6% |
| Cc1nn(-c2ccccc2)c(C)c1/C=N/NC(=O)c1cc(-c2cccs2)[nH]n1 | inconclusive [cytotoxic, full curve] | – |
| O=C(Nc1ccc(NC(=O)C2CC2)nc1)c1ccncc1 | – | inactive: 6.94% |
| O=S(=O)(Nc1ccc(Cl)cc1NS(=O)(=O)c1ccccc1)c1ccccc1 | inconclusive [cytotoxic, single point] | – |
| O=C1/C(=C/c2ccccn2)COc2ccccc21 | – | inactive: -13.9% |
| O=C(NCc1ccccc1)C(c1ccc(F)cc1)N1CCN(CCN2CCOCC2)CC1 (configuration not stated) | inconclusive [rising, full curve, poor fit] | – |
| O=C(NCC(c1ccco1)N1CCCC1)c1ccc(Cl)c(S(=O)(=O)N2CCc3ccccc32)c1 (configuration not stated) | inconclusive [cytotoxic, single point] | – |
| CN1CCN(c2ccc(CNC(=O)c3ccc(-c4ccc(F)c(F)c4)c4ccoc34)cc2)CC1 | – | inactive: -23.1% |
| COc1cc2c(cc1OC)CC(=O)N(C)CC2 | – | inactive: 10.6% |
| Cc1cccn2c(=O)c3cc(C(=O)NC(C)c4ccccc4)c(=N)n(CCCn4ccnc4)c3nc12 (configuration not stated) | inconclusive [cytotoxic, single point] | – |
| COc1ccc(N(CC(=O)Nc2ccccc2OC)S(=O)(=O)c2ccc(NC(C)=O)cc2)cc1 | inconclusive [cytotoxic, full curve] | – |
| O=C1NC(=NCc2ccccc2)S/C1=C/c1ccc(O)cc1 | inconclusive [cytotoxic, single point] | – |
| CCOC(=O)c1c(NC(=O)c2ccccc2)sc2c(O)c(CN(CC)CC)ccc12 | inconclusive [cytotoxic, full curve, poor fit] | – |
| O=C(Nc1nc(-c2ccccc2)c(-c2ccccc2)o1)c1ccc(F)cc1 | inconclusive [cytotoxic, single point] | – |
| Cc1csc(NC(=O)CSc2nsc(SCC(=O)Nc3nc(C)cs3)c2C#N)n1 | inconclusive [cytotoxic, single point] | – |
| C1=C(CCNc2ncnc3c2cnn3-c2ccccc2)CCCC1 | – | inactive: -4.48% |
| O=c1c2cc(F)ccc2sn1-c1ccccc1Cl | inconclusive [cytotoxic, single point] | – |
| Cc1cccc(NC(=O)CCC(=O)N/N=C/c2ccc(O)cc2O)c1 | inconclusive [cytotoxic, partial curve] | – |
| CN(O)/C=C1\C(=O)Nc2ccccc21 | – | inactive: -11.5% |
| CCOC(=O)[C@@H](NC(=O)/C=C/[C@H]1O[C@@H](n2cc(C)c(=O)[nH]c2=O)C[C@@H]1O)C(C)C | – | inactive: 15.6% |
| O=C(Nc1ccc(Cc2ccncc2)cc1)c1ccc(S(=O)(=O)N2CCOCC2)cc1 | inconclusive [cytotoxic, partial curve] | – |
| CCCCn1c(SCc2ccc(Cl)cc2)nc2c1c(=O)[nH]c(=O)n2C | inconclusive [cytotoxic, partial curve] | – |
| CCOc1ccc(Br)cc1/C=N/NC(=O)c1ccncc1 | – | inactive: -0.704% |
| S=C(Nc1ccc(Br)cc1)NC1CCN(Cc2ccccc2)CC1 | inconclusive [cytotoxic, single point] | – |

| SMILES | Potency | activity, negative = toxicity |
| --- | --- | --- |
| NC(c1ccccc1)c1csc(NC(=O)Nc2ccccc2Oc2ccccc2)n1 (configuration not stated) | inconclusive [cytotoxic, single point] | – |
| S=c1nc[nH]c2c1ncn2-c1ccc(Cl)cc1 | – | inactive: 18.6% |
| CC(NC(=O)Cc1ccc(S(=O)(=O)N2CCOCC2)s1)c1ccc(Br)cc1 (configuration not stated) | – | inactive: -4.48% |
| Cc1cc(NC(=O)c2ccc(S(=O)(=O)N(C)CC3CCCO3)cc2)no1 (configuration not stated) | – | inactive: 1.58% |
| Cc1ccc(NC(=O)N2CCCN(Cc3ccc(F)cc3)C2)cc1C | active: 16.4 µM | – |
| COc1ccccc1NC(=O)c1ccccc1-c1ccccc1C(=O)O | – | inactive: 5.47% |
| Cc1cc(NC(=O)CCSc2nc(-c3ccco3)cc(C(F)(F)F)n2)n(-c2ccccc2)n1 | – | inactive: -14.3% |
| Cc1nc(NC(=O)CN(C)S(=O)(=O)c2ccc(Cl)cc2)sc1C | inconclusive [cytotoxic, single point] | – |
| Cc1ccc(-n2c(O)c(/C=N/c3ncn[nH]3)c3ccccc3c2=O)cc1 | inconclusive [cytotoxic, partial curve] | – |
| COc1cccc(-c2nc(NCc3ccco3)c3ccccc3n2)c1O | inconclusive [cytotoxic, single point] | – |
| CCOC(=O)c1c(NC(=O)CN2CCN(C)CC2)sc(C(=O)Nc2ccccc2)c1C | active: 23.1 µM | – |
| COc1cc(CNC(C)c2ccccc2)cc(Br)c1OCc1ccccc1 (configuration not stated) | inconclusive [cytotoxic, single point] | – |
| O=C(CNCC1CCCO1)N1CCN(S(=O)(=O)c2ccc3ccccc3c2)CC1 (configuration not stated) | – | inactive: 6.7% |
| CC(=O)C12CCCCC1CC1[C@@H]3CC(C)C4=CC(=O)CC[C@]4(C)C3CC[C@@]12C (some centres not stated) | – | inconclusive: 33.1% |
| O=C(Nc1ccc(OC(F)(F)F)cc1)C1CCCN(S(=O)(=O)c2cccnc2)C1 (configuration not stated) | inconclusive [cytotoxic, single point] | – |
| Cc1ccc(S(=O)(=O)Nc2ccccc2-c2ccccc2NS(=O)(=O)c2ccc(C)cc2)cc1 | inconclusive [cytotoxic, single point] | – |
| CC(C)N1C(=O)N(c2cccc(Cl)c2)C(C)(O)CC1(C)C (configuration not stated) | – | inactive: 15.2% |
| O=C(N/N=C/C(c1ccccc1)c1ccccc1)c1ccccc1F | inconclusive [cytotoxic, single point] | – |
| Cc1ccc(S(=O)(=O)c2c(COC(=O)c3ccc(Cl)cc3)c(-c3ccccc3)nn2C)cc1 | – | inactive: 13% |
| O=C(c1ccco1)N1CCN(C(=O)C2CC(=O)N(c3ccccc3)C2)CC1 (configuration not stated) | inconclusive [rising, single point] | – |
| CCOC(=O)C1=CN(c2cccc(F)c2)C=C(C(=O)OCC)C1c1cc(OC)c(O)c([N+](=O)[O-])c1 | inconclusive [cytotoxic, single point] | – |
| CCN(CC)CCCNC(=O)c1oc2ccc(S(=O)(=O)N3CC(C)CC(C)C3)cc2c1C (configuration not stated) | active: 25.9 µM | – |
| O=C(CNC(=O)c1cccc(F)c1)N/N=C/c1cc(Br)ccc1OC(=O)/C=C/c1ccco1 | inconclusive [cytotoxic, full curve] | – |
| COc1ccccc1NC(=O)Nc1nc(C(N)C(C)C)cs1 (configuration not stated) | inconclusive [cytotoxic, single point] | – |
